From patent CN110922480A (BEIJING KANGPUMEITE INNOVATION MEDICINE TECH CO LTD, dated 2020)

Target: T1, 人C3dg-生物素 (human, UniProt P01024 fragment, biotin label (site not stated))
T1 construct: domain: C3dg; Captured on a BIAcore streptavidin sensor chip; also called 生物素标记的C3dg
Assay: SPR (BIAcore 3000), C3dg-biotin captured on a streptavidin chip

T1 sequence (P01024 955-1303 limits assumed): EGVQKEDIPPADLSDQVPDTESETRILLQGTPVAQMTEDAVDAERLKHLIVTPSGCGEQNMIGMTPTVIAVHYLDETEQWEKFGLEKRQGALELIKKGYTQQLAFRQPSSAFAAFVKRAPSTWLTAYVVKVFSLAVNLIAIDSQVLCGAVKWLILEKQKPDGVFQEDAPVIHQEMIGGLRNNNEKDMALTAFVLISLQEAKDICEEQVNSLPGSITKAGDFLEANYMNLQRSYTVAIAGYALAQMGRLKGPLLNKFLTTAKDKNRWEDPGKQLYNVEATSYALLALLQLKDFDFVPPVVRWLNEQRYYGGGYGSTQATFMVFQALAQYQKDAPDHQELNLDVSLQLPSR

B1: 抗C3d单链抗体-DAF融合蛋白 (ScFv-DAF) (other)
chain: MASYELTQPPSVSVAPGQTARITCSGDALGDKYASWYQQKPGQAPVLVIYEDSKRPSGIPERFSGSNSGNTATLTISGTQAEDEADYYCQSQAGAVVGVFGGGTKLTVLGSGGSTITSYNVYYTKLSSSGS[skipping about 100 residues]GSVNHGVDFWGQGTLVTVSSAGGGSGGGGSDCGLPPDVPNAQPALEGRTSFPEDTVITYKCEESFVKIPGEKDSVICLKGSQWSDIEEFCNRSCEVPTRLNSASLKQPYITQNYFPVGTVVEYECRPGYRREPSLSPKLTCLQNLKWSTAVEFCKKKSCPNPGEIRNGQIDVPGGILFGATISFSCNTGYKLFGSTSSFCLISGSSVQWSDPLPECREIYCPAPPQIDNGIIQGERDHYGYRQSVTYACNKGFTMIGEHSIYCTVNNDEGEWSGPPPECR
notes: Secreted from CHO-K1 cells, about 55 kDa; also called C3d-ScFV-DAF
Does B1 bind?
Result: binds

B2: 抗C3d单链抗体 VL-Linker-VH (scFv)
scFv: MASYELTQPPSVSVAPGQTARITCSGDALGDKYASWYQQKPGQAPVLVIYEDSKRPSGIPERFSGSNSGNTATLTISGTQAEDEADYYCQSQAGAVVGVFGGGTKLTVLGSGGSTITSYNVYYTKLSSSGS[skipping about 100 residues]GSVNHGVDFWGQGTLVTVSSA
notes: Selected from a human phage library, then expressed in CHO cells and purified, about 26 kD; also called ScFv; 人源抗补体C3d分子的单链抗体
Does B2 bind?
Result: binds
